# The list shows a part of the results. Single values of this set are uncertain. Values with irradiation are relative to irradiated vehicle.
# Legend:
# [1] = tested on: A549-Dual; assay: NF-kB reporter (SEAP) activity, viability-corrected, relative to vehicle (fold change vs vehicle); higher = more activation of STING-IRF / NF-kB immune response reporter
# [2] = tested on: A549-Dual; assay: ISRE reporter (Lucia luciferase) activity, viability-corrected, relative to vehicle (fold change vs vehicle); higher = more activation of STING-IRF / NF-kB immune response reporter
# 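For NF-kB reporter (SEAP) activity, viability-corrected, relative to vehicle in this document: viability correction based on the alamar blue assay, with concentrations leaving 10% survival or less dropped.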
Structure (SMILES),"NF-kB reporter ([1]; 0.1 µM, irradiation: 8 Gy/4 fr)","NF-kB reporter ([1]; 0.1 µM, irradiation: none)","NF-kB reporter ([1]; 0.3 µM, irradiation: 8 Gy/4 fr)","NF-kB reporter ([1]; 0.3 µM, irradiation: none)","NF-kB reporter ([1]; 1 µM, irradiation: 8 Gy/4 fr)","NF-kB reporter ([1]; 1 µM, irradiation: none)","NF-kB reporter ([1]; 3 µM, irradiation: 8 Gy/4 fr)","NF-kB reporter ([1]; 3 µM, irradiation: none)","NF-kB reporter ([1]; 10 µM, irradiation: 8 Gy/4 fr)","NF-kB reporter ([1]; 10 µM, irradiation: none)","ISRE reporter ([2]; 0.1 µM, irradiation: 8 Gy/4 fr)","ISRE reporter ([2]; 0.1 µM, irradiation: none)","ISRE reporter ([2]; 0.3 µM, irradiation: 8 Gy/4 fr)","ISRE reporter ([2]; 0.3 µM, irradiation: none)","ISRE reporter ([2]; 1 µM, irradiation: 8 Gy/4 fr)","ISRE reporter ([2]; 1 µM, irradiation: none)","ISRE reporter ([2]; 3 µM, irradiation: 8 Gy/4 fr)","ISRE reporter ([2]; 3 µM, irradiation: none)","ISRE reporter ([2]; 10 µM, irradiation: 8 Gy/4 fr)","ISRE reporter ([2]; 10 µM, irradiation: none)"
Cc1cc(C(C)(C)C)cc(C)c1CC1=NCCN1 [Xylometazoline],0.774,0.988,0.854,0.872,0.863,0.819,1.13,0.868,0.913,0.949,0.784,0.827,0.806,0.673,0.696,0.692,0.793,0.873,1.04,0.999
Nc1c(CC(=O)[O-])cccc1C(=O)c1ccccc1.O.[Na+] [Amfenac Sodium Monohydrate],1.04,0.972,0.858,0.963,1.21,0.846,0.974,0.884,0.968,1.08,0.989,0.695,0.824,0.614,0.825,0.668,0.851,0.783,0.897,0.777
COc1cc2nccc(Oc3ccc(NC(=O)C4(C(=O)Nc5ccc(F)cc5)CC4)cc3)c2cc1OC.O=C(O)CC(O)C(=O)O [Cabozantinib malate (XL184)],0.863,0.957,0.902,0.939,0.932,1.18,1.01,1.04,0.994,0.931,0.844,0.713,0.908,0.974,0.889,1.01,1.15,1.31,1.11,1.82
O=c1c(-c2ccc(O)cc2)coc2cc(O)cc(O)c12 [Genistein],0.997,0.993,1.15,1.06,0.838,1,1.01,0.867,0.971,1.28,0.958,0.937,1.3,1.17,0.918,0.873,1,0.808,0.905,4.73
Cl.Cl.Cl.Cl.Cl.Cl.Cl.Cl.c1cc(CN2CCCNCCNCCCNCC2)ccc1CN1CCCNCCNCCCNCC1 [Plerixafor 8HCl (AMD3100 8HCl)],1.01,1.07,0.801,1.12,0.894,1.44,0.764,1.14,0.746,0.847,1.07,1.36,0.92,1.1,0.947,1.26,0.97,0.958,0.856,0.851
CCC1/C=C(\C)CC(C)CC(OC)C2OC(O)(C(=O)C(=O)N3CCCCC3C(=O)OC(/C(C)=C/C3CCC(Cl)C(OC)C3)C(C)C(O)CC1=O)C(C)CC2OC (stereo not given) [Pimecrolimus],1.13,1.07,1.05,1.29,1.12,1.61,1.1,1.24,1.21,1.38,1.11,1.23,1.11,1.21,1.26,1.53,1.37,1.23,1.33,2
O=C(O)COC(=O)Cc1ccccc1Nc1c(Cl)cccc1Cl [Aceclofenac],0.99,1.71,1.2,1.46,1.29,1.19,1.63,1.23,0.784,0.476,0.938,1.72,0.974,1.38,1.13,1.03,0.855,1.05,0.951,0.92
Cc1cn(-c2cc(NC(=O)c3ccc(C)c(Nc4nccc(-c5cnccn5)n4)c3)cc(C(F)(F)F)c2)cn1 [Radotinib],0.972,0.839,0.692,0.972,0.806,1.03,0.743,1.01,0.743,0.815,0.978,1.12,0.829,1.04,0.921,0.915,0.743,0.923,0.671,0.829
C=C1C(=O)OC2C1CCC(=C)C1CCC(=C)C12 (stereo not given) [Dehydrocostus Lactone],1.26,1.49,1.12,1.71,1,1.16,1.41,1.31,1.41,1.46,1.13,0.99,0.863,1.05,0.658,0.835,0.972,0.891,0.621,1.04
COc1ccc2cc1Oc1ccc(cc1)CC1c3cc(c(OC)cc3CCN1C)Oc1c(O)c(OC)cc3c1C(C2)N(C)CC3 (stereo not given) [Fangchinoline],1.32,1.21,1.1,1.74,1.06,2,1.22,1.47,1.04,1.24,1.25,1.23,1.41,1.77,1.39,1.73,1.51,2.05,1.46,3.56
CC(C)Cc1ccc(C(C)C(=O)O)cc1.NCCCCC(N)C(=O)O (stereo not given) [Ibuprofen Lysine],1.11,0.993,0.968,0.984,1.06,0.932,0.957,1,0.94,1.08,0.901,0.849,0.815,0.623,0.764,0.758,0.86,0.836,0.81,0.796
Cl.Nc1ccn(C2OC(CO)C(O)C2O)c(=O)n1 (stereo not given) [Cytarabine hydrochloride],0.93,1.1,0.75,1.11,0.793,1.26,0.993,1.4,0.839,1.45,1.04,1.38,0.649,3.15,0.525,3.08,0.543,2.05,0.501,2.64
COC(=O)NC(C(=O)N1CCCC1c1ncc(-c2ccc(-c3ccc(-c4cnc(C5CCCN5C(=O)C(NC(=O)OC)C(C)C)[nH]4)cc3)cc2)[nH]1)C(C)C (stereo not given),0.872,0.983,0.902,1.1,0.757,1.02,0.939,0.808,1.07,0.998,0.919,0.868,0.93,1.15,0.829,1.16,1.14,0.929,1.16,2.39
CCC(=O)OCC(=O)C1(OC(=O)CC)C(C)CC2C3CCC4=CC(=O)C=CC4(C)C3(F)C(O)CC21C (stereo not given) [Betamethasone Dipropionate],0.36,0.654,0.409,0.692,0.339,0.623,0.379,0.576,0.394,0.539,0.0695,0.198,0.0602,0.221,0.0556,0.241,0.0441,0.187,0.0549,0.208
CC(=O)O.CC(C)CC(NC(=O)CNC(=O)C(Cc1ccc(O)cc1)NC(=O)C(CO)NC(=O)C(Cc1c[nH]c2ccccc12)NC(=O)C(Cc1cnc[nH]1)NC(=O)C1CCC(=O)N1)C(=O)NC(CCCNC(=N)N)C(=O)N1CCCC1C(=O)NCC(N)=O (stereo not given) [Gonadorelin Acetate],0.816,0.879,0.741,0.995,0.826,1.24,0.737,1.1,0.869,0.845,0.919,1.21,0.925,0.952,0.991,0.917,0.877,0.924,1,0.862
"CC(Nc1ncnc2[nH]cnc12)c1cc2cccc(Cl)c2c(=O)n1-c1ccccc1 (stereo not given) [Duvelisib (IPI-145, INK1197)]",0.948,1.33,0.918,0.948,1.02,0.956,0.962,0.898,0.899,0.86,0.989,1.34,1.11,0.93,1.09,1.03,1.16,0.902,1.12,1.3
O=NN(CCCl)C(=O)NCCCl [Carmustine],0.901,0.988,0.858,0.928,0.924,0.982,0.966,0.997,1.04,0.962,0.965,1.1,0.914,0.999,0.995,1.05,1.19,0.833,1.06,0.939
OCC1OC(OCC2OC(O)C(O)C(OC3OC(CO)C(O)C(OC4OC(CO)C(O)C(OC5OC(COC6OC(CO)C(O)C(O)C6O)C(O)C(OC6OC(CO)C(O)C(O)C6O)C5O)C4O)C3O)C2O)C(O)C(O)C1O (stereo not given) [Lentinan],1.24,2.33,1.32,1.96,1.79,1.34,2.15,1.36,1.72,0.537,1.17,2,1.16,1.5,1.47,1.21,1.19,1.17,1.55,0.906
COc1c2occc2c(OC)c2c(=O)cc(C)oc12 [Khellin],1.04,1.54,0.94,1.4,1.39,0.984,1.14,1.18,0.674,0.952,1,1.36,1.01,0.997,1.09,0.816,0.619,0.818,0.69,0.775
CNC(=O)c1cc(Oc2ccc(NC(=O)Nc3ccc(Cl)c(C(F)(F)F)c3)c(F)c2)ccn1.O [Regorafenib Monohydrate],1.04,1.18,0.891,0.898,0.849,0.924,0.811,1.12,0.742,1.26,0.972,1.18,0.955,0.814,0.662,0.735,0.333,0.416,0.222,0.538
CC/C(=C(\c1ccccc1)c1ccc(OCCN(C)C)cc1)c1ccccc1.O=C(O)CC(O)(CC(=O)O)C(=O)O [Tamoxifen],0.892,0.878,0.93,0.965,0.864,0.891,0.95,0.806,0.921,0.954,0.951,0.799,1.1,0.951,0.916,0.736,1.01,0.819,1,1.14
CCC(=O)OC1(C(=O)SCF)C(C)CC2C3CC(F)C4=CC(=O)C=CC4(C)C3(F)C(O)CC21C (stereo not given) [Fluticasone propionate],0.538,0.888,0.858,1.07,1.07,0.739,1.14,0.771,0.473,0.694,0.0498,0.234,0.0434,0.234,0.0472,0.161,0.0453,0.227,0.0452,0.236
O=C1CCC(N2C(=O)c3ccccc3C2=O)C(=O)N1 (stereo not given) [Thalidomide],1.12,0.955,1.1,1.06,1.13,0.959,1.3,0.998,0.811,0.939,1.09,0.934,0.912,0.886,0.982,0.84,0.824,0.929,0.84,0.904
CCC1(O)C(=O)OCc2c1cc1n(c2=O)Cc2cc3c(CN(C)C)c(O)ccc3nc2-1.Cl (stereo not given) [Topotecan HCl],1.24,1.82,1.51,3.45,1.22,3.84,–,5.54,–,5.19,1.16,5.43,1.63,9.13,1.52,12.7,–,5.07,–,2.56
O=C1NC(=O)C(c2ccccc2)(c2ccccc2)N1 [Phenytoin],–,–,–,–,–,–,–,–,1.33,1.11,–,–,–,–,–,–,–,–,1.11,0.93

# Reference: the supplement of paper PMC9174493
